# Results published in PubChem BioAssay AID1347073 (National Center for Advancing Translational Sciences (NCATS), 2019).
# The whole screen tested about 45,000 compounds, of which about 200 (0.44%) were called active. Inconclusive results (about 7%) are left out. Calls come from the whole dose curve; as a rule, active = well fitted activation curve with a large enough effect; inconclusive = small, poorly fitted or top-dose-only effect; inactive = no such curve, though single readings can be large or run the other way. The list shows a part of the results.
# Assay: qHTS of TDP-43 Inhibitors: NCGC Sytravon Library Screen; note: 0% is about no effect; nearly all actives have a fitted effect of over 55% in size
# Settings: yeast TDP-43 toxicity rescue, BacTiter-Glo growth, 24 h; series mostly up to 46.1 µM; growth rescue (activation): at the top concentration
# In short: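 TDP-43-expressing yeast, pregrown in raffinose, seeded at OD600 0.02 in galactose medium with compound for 24 hr at 30 deg C. Growth read by BacTiter-Glo luminescence, so rescue of toxicity appears as activation.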
row,Compound,growth rescue (activation)
1,O=C(O)CC1(CC(=O)Nc2cccc(C(F)(F)F)c2)CCCC1,inactive: 19.5%
2,CCOc1ccc(-c2[nH]nc3c2C(c2ccc4c(c2)OCO4)C(C#N)=C(N)O3)cc1OC (stereo not drawn),inactive: 17.5%
3,O=C(Cc1ccc(F)cc1)Nc1c2c(nn1-c1cccc(Cl)c1)CS(=O)C2 (stereo not drawn),inactive: 30%
4,O=C(O)CN1C(=O)C2C3CC(C2C1=O)C1C(c2ccccc2)c2sc(=O)[nH]c2SC31 (stereo not drawn),inactive: 17%
5,Cc1ccc(NC(=O)COC(=O)c2ccc3c(c2)OCO3)cc1S(=O)(=O)N1CCCCC1,inactive: 0.988%
6,Cc1cccn2c(CN(C)CC3CCCCO3)c(C(=O)N3CCCCC3)nc12 (stereo not drawn),inactive: -1.09%
7,CC1CCN(C2CC(=O)N(c3ccccc3)C2=O)CC1 (stereo not drawn),inactive: 19.9%
8,CCC1(C)Cc2c(sc3nc4n(c(=O)c23)CCCS4)CO1 (stereo not drawn),inactive: 23.8%
9,COc1cc(CC(=O)N2CCC(n3nccc3NC(=O)C3CC3)CC2)cc(OC)c1OC,inactive: 16.1%
10,CCCN(CCC)c1ccc(CC(=O)NC(C)Cc2ccccc2)cc1 (stereo not drawn),inactive: -1.98%
11,CCOc1ccc(N(CC(=O)NCCc2ccc(Cl)cc2)S(=O)(=O)c2c(C)[nH]c(=O)[nH]c2=O)cc1,inactive: 4.36%
12,CCc1nc2ccc(C(=O)NCCN3CCOCC3)cn2c1N(C)Cc1ccc(OC)cc1,inactive: -7.04%
13,CC(=O)N(C)c1ccc(NC(=S)Nc2cccc3ccccc23)cc1,inactive: 33.8%
14,COCC(=O)N1CCC(Oc2ccc(C(=O)NCc3cc(C(C)C)no3)cc2)CC1,inactive: -4.65%
15,CC(C)COC(=O)N1CCCCC1c1cc(C(=O)NCc2ccccc2)no1 (stereo not drawn),inactive: 32.9%
16,O=C(N/N=C/c1ccccc1)C(=O)N/N=C/c1ccccc1,inactive: 16.7%
17,COc1ccc(N2C(=O)C3C(C2=O)C(C(=O)c2ccccc2)N2CCCC32)cc1 (stereo not drawn),inactive: -4.13%
18,NS(=O)(=O)c1ccc(Oc2ccc(S(N)(=O)=O)cc2)cc1,inactive: -4.24%
19,COc1ccc(CNC(=O)C2CC(C)=C(C)CC2C(=O)O)cc1OC (stereo not drawn),inactive: 5.48%
20,COc1ccc(/C=N/NC(=O)c2nc(-c3ccccc3)n(-c3ccccc3)n2)c(O)c1,inactive: 1.22%
21,Cc1cc(N/C(=N/S(=O)(=O)c2cc(F)ccc2F)c2ccccc2)n(-c2ccccc2)n1,inactive: 11.6%
22,NC(N)=Nc1nc2ccc(Cl)cc2c(=O)[nH]1,inactive: 6.9%
23,COc1ccc(N2CCN(Cc3nnnn3C3CCCCC3)CC2)cc1,inactive: -6.38%
24,CC(C)(C)N(Cc1nc(-c2ccccc2)no1)C(=O)c1ccc2c(c1)OCO2,inactive: 25.9%
25,O=C(NCCCN1CCOCC1)Nc1ccc(Cc2ccc(NC(=O)NCCCN3CCOCC3)cc2)cc1,inactive: 1.69%
26,Cc1ccc(-n2c(C)cc(C(=O)OCC(=O)N3CCOCC3)c2C)cc1,inactive: -2.75%

row,Compound,growth rescue (activation)
1,COc1ccc(-c2noc(CNC(=O)c3ccc4c(c3)OCO4)n2)cc1,inactive: -7.89%
2,CCN(CC)CCN1CCN(c2cnc(C)cn2)CC1,inactive: -2.36%
3,O=C(Nc1ccc(Cc2ccncc2)cc1)c1ccc(S(=O)(=O)N2CCCC2)cc1,inactive: 16.8%
4,C/C(=N\NC(=O)c1ccccc1)c1ccccc1F,inactive: 2.4%
5,COc1ccc(Cl)cc1NC(=O)CCn1c(=O)oc2ccccc21,inactive: 4.9%
6,C/C=C(\C)CN1CCC(n2nccc2NC(=O)c2ccc3c(c2)OCO3)CC1,inactive: -8.78%
7,CC(=O)c1ccc(OCc2c(-c3ccccc3)nnn2CC(=O)NS(=O)(=O)c2ccc(C)cc2)cc1,inactive: -13%
8,O=C(NC1CC2CCCC(C1)N2C(=O)Nc1cccc(F)c1)C1CC1 (stereo not drawn),inactive: -14.9%
9,O=C(O)C1CCN(S(=O)(=O)c2ccc(Cl)s2)CC1,inactive: 20.5%
10,CN(C(=O)COC(=O)c1ccc([N+](=O)[O-])cc1)c1ccccc1,inactive: 8.91%
11,COc1ccccc1OC(C)C(=O)N1CCC(Cc2ccccc2)CC1 (stereo not drawn),inactive: 13.7%
12,CCc1cccc(CC)c1NC(=O)COC(=O)c1ccccc1-c1nc2ccccc2s1,inactive: 21.5%
13,Cc1cc(C)c(S(=O)(=O)Nc2ccc3[nH]c(=O)[nH]c3c2)c(C)c1,inactive: 4.22%
14,COc1cccc(NC(=S)N2CCCC2)c1,inactive: 6.74%
15,Cc1ccc(CNC(=O)Cn2cccc2C(=O)c2ccccc2C)cc1,inactive: 16.4%
16,Cc1ccc(-c2csc(NC(=O)Cn3[nH]c(=O)c4ccccc4c3=O)n2)cc1,inactive: 4.35%
17,O=C(O)c1ccc2c(c1)C(=O)N(c1nccs1)C2=O,inactive: -25.5%
18,CSc1ccc(CN2CCC(C)(Oc3ccc4ccccc4c3)C2)cc1 (stereo not drawn),inactive: 11.4%
19,CSc1ccc(/C=C/C(=O)OCC(=O)N2CCN(c3ccccc3)CC2)cc1,inactive: 4.01%
20,CC(C)CC(N)c1csc(Nc2cnccn2)n1 (stereo not drawn),inactive: 3.91%
21,COC(=O)c1c(NC(=O)COC(=O)c2ccc(O)cc2)sc2c1CCCCC2,inactive: -10.2%
22,Cc1c(CCNC(=O)C(C)(C)C)sc2nc(-c3ccc(F)cc3)nn12,inactive: 15.4%
23,COc1ccc2[nH]c(C(=O)O)c(NC(=O)c3ccccc3[N+](=O)[O-])c2c1,inactive: 27%
24,COc1ccc(OC)c(C(=O)c2ccc(C(=O)Nc3cccc4ccccc34)cc2)c1,inactive: 9.89%
25,N#C/C(=C(/O)Cc1ccccc1)P(=O)(c1ccccc1)c1ccccc1,inactive: 3.81%
26,CC1(C)Cc2c(c(-c3ccccc3)nc(N3CCOCC3)c2C(N)=O)CO1,inactive: -23.6%

row,Compound,growth rescue (activation)
1,Cc1cccc(C)c1NC(=O)C(C)Sc1nnc(C)n1CC1CCCO1 (stereo not drawn),inactive: -17.7%
2,CCOc1ccc(NC(=O)NC23CC4CC(CC(C4)C2)C3)cc1,inactive: -0.162%
3,Cc1ccc(C(C(=O)NCC2CCCO2)N(C(=O)c2snc(C(N)=O)c2N)c2ccc3c(c2)OCCO3)cc1 (stereo not drawn),inactive: -6.13%
4,COc1ccc(Cl)cc1N(CC(=O)N1CCCCC1)S(C)(=O)=O,inactive: 7.16%
5,CC(=O)c1c(C)oc2ccc(NS(=O)(=O)c3ccc(O)c(C(=O)O)c3)cc12,inactive: -6.37%
6,Cc1cccc(NC(=S)Nc2ccc(Oc3ccccc3)cc2)n1,inactive: 20.9%
7,CCN(Cc1ccccc1)c1ccc(/C=N/N=C(N)N)cc1,inactive: 8.97%
8,O=C(CNCc1ccccc1Cl)Nc1ccc(C(=O)N2CCCCC2)cc1,inactive: 6.52%
9,COc1cc(OC)cc(C(=O)N2CCN(C3CCC(C)CC3)CC2)c1 (stereo not drawn),inactive: 8.77%
10,Cc1ccc(-c2nc(N)sc2CC(=O)OCC(=O)NCC2CCCO2)cc1 (stereo not drawn),inactive: 11.4%
11,Cc1cccc(C(=O)NCCNC(=O)c2ccccn2)c1,inactive: -7.12%
12,CC1C[N+](=C2C=C(N3CCOCC3)CC(C)(C)C2)CC(C)O1 (stereo not drawn),inactive: 5.83%
13,Cc1ccc2c(c1)nnn2C1CCN(S(=O)(=O)c2ccc(C(=O)N3C(C)CCCC3C)cc2)CC1 (stereo not drawn),inactive: -1.55%
14,CC1CCCC(C)N1C(=O)CSc1ncccn1 (stereo not drawn),inactive: 31.2%
15,Cc1ccc(C(=O)NNc2c3ccccc3nc3ccccc23)cc1,inactive: 8.1%
16,Cc1ccc(CC(=O)N/N=C/c2ccc(OC(=O)c3ccc([N+](=O)[O-])cc3)cc2)cc1,inactive: 9.53%
17,O=C(NCC(=O)N(c1ccc(Cl)cc1)C(C(=O)NC1CCCC1)c1cccnc1)c1ccco1 (stereo not drawn),inactive: -3.83%
18,O=C(Nc1ccccc1)c1ccc(CN2CCc3ccccc3C2)cc1,inactive: -2.62%
19,Cc1cc(C)n(C(=O)Cc2cn3ccsc3n2)n1,inactive: -9.48%
20,CCN(CC)S(=O)(=O)c1ccc(NC(=O)COC(=O)CCc2cc(OC)c(OC)c(OC)c2)cc1,inactive: -1.38%
21,CCc1nnc(NC(=O)c2sc3nc4c(cc3c2N)CCCCC4)s1,inactive: -1.12%
22,Cc1cnc(CNC(=O)c2csc(COCCO)n2)cn1,inactive: 12.2%
23,S=C1NCN(C2CCCCC2)CN1CCc1ccccc1,inactive: 1.81%
24,Cc1cc(C)nc(NC(=O)c2cc(-c3ccc4c(c3)OCO4)nc3ccccc23)c1,inactive: 27.5%
25,Cc1cs/c(=N\N=C2CCCCC2)n1Cc1ccco1,inactive: 0.286%
26,CC(=O)Nc1ccc(S(=O)(=O)N2CCC(NC(=O)C(Cc3ccccc3F)NC(C)=O)CC2)cc1 (stereo not drawn),inactive: 9.03%

row,Compound,growth rescue (activation)
1,CC1CCN(C(=O)COc2ccccc2F)CC1,inactive: 11.5%
2,Cc1cc(C)cc(N2C(=O)C3C4C=CC(C4)C3C2=O)c1 (stereo not drawn),inactive: -31.7%
3,O=C(N/C(=C/c1cn(-c2ccccc2)nc1-c1ccccc1)C(=O)N1CCOCC1)c1ccc(Cl)cc1Cl,inactive: -20.9%
4,CCOC(=O)N1CCN(C(=O)c2cc3c(=O)[nH]c4ccccc4c3s2)CC1,inactive: 6%
5,Cc1ccc(S(=O)(=O)CCc2nnc(NC(=O)CCl)s2)cc1C,inactive: 2.27%
6,CC(=O)Nc1ccc(S(=O)(=O)NCC(=O)OCC(=O)NCc2ccc3c(c2)OCO3)cc1,inactive: 8.61%
7,Cc1cc(C)n2nc(C(=O)N/N=C/c3c4ccccc4cc4ccccc34)nc2n1,inactive: -9.36%
8,Cn1c(=O)c2cc(NC(=S)NCc3ccccc3F)ccc2n1Cc1cccc(C(F)(F)F)c1,inactive: -10.8%
9,CCc1ccc(NC(=O)N2CCN(c3ccccc3)CC2)cc1,inactive: 8%
10,CCn1c(CSc2nc(C)cc(C)n2)nnc1SCC(N)=O,inactive: 2.73%
11,O=C(COC(=O)CCC(=O)c1ccc(F)cc1)NCc1ccccc1Cl,inactive: 10.3%
12,COc1ccc(Cl)cc1S(=O)(=O)NC(C)C(=O)NCCCn1ccnc1 (stereo not drawn),inactive: 2.15%
13,COc1cc(/C(C)=N/NC(=O)Cc2c(C)[nH][nH]c2=O)ccc1O,inactive: 17.7%
14,Cc1nnc(NC(=O)CSc2nnc(CNC(=O)c3ccccc3F)n2C(C)C)s1,inactive: 3.72%
15,O=C(CSc1ccc([N+](=O)[O-])cc1)NNC(=O)c1ccccc1F,inactive: 7.62%
16,N#C/C(=C\c1ccc(-c2ccc(F)cc2)o1)C(=O)Nc1nc(-c2cccs2)cs1,inactive: 2.57%
17,O=C(COC(=O)c1cccnc1Nc1cccc(C(F)(F)F)c1)NC1CCS(=O)(=O)C1 (stereo not drawn),inactive: -7.75%
18,Cc1ccc(-n2cc(CN(C)Cc3nccn3C)c(-c3cccc(C)c3)n2)cc1,inactive: -10.9%
19,CCOc1ccccc1NC(=O)[C@@H](NC(=O)c1ccccc1F)C(C)C,inactive: -18.1%
20,O=C(CSc1nc2ncc(Cl)cc2[nH]1)NCC(=O)Nc1ccc(F)c(F)c1F,inactive: 5.65%
21,Cc1ccc(C)c(-n2cc(CN3CCN(C(=O)c4ncn[nH]4)CC3)c(-c3ccccc3)n2)c1,inactive: -5.02%
22,O=C(NCCc1ccccc1)C1CCC(CNS(=O)(=O)c2cccc3cccnc23)CC1 (stereo not drawn),inactive: 0.518%
23,Cc1cc(NS(=O)(=O)c2ccc(NC(=O)c3ccc([N+](=O)[O-])s3)cc2)nc(C)n1,inactive: 38.4%
24,COc1ccc(C(=O)C[n+]2cc(-c3ccc(OC)cc3)n3c2CCCC3)cc1,inactive: -0.751%
25,CC1(C)C(=O)NCCN1C(=O)c1ccc2nc(Cc3ccccc3F)oc2c1,inactive: 5.22%
